# The list shows a part of the results. At the low end of the ranking the order means little.
# Biological target: SIX1 homeodomain (reference allele) (UniProt Q15475)
# Test: universal protein binding microarray
# Conditions: Universal all-10-mer PBM (8x60K, AMADID 030236), 300 nM GST-tagged protein, Alexa Fluor 488 anti-GST; buffer, salt, pH and temperature not stated; high values mean tight binding; most listed sequences are background and not binding sites; double strand, one strand shown
row,Sequence,binding signal [E-score]
1,CTTATGCC,0.0583
2,TGCTCCCA,0.0634
3,AGTTGTAT,0.215
4,CCTTGCTC,0.0514
5,AGCACTAC,-0.0916
6,CCGCTCAC,-0.0754
7,GAAAAGGA,-0.253
8,AAGAGTCG,-0.181
9,ACACTGGC,0.0449
10,CCTACGCG,0.0131
11,CGAATAAG,-0.13
12,ATTTGATC,0.215
13,ATCAGCTA,0.192
14,CCGTAATC,0.169
15,CCAATAGA,-0.0187
16,ACACAAGC,-0.189
17,ACTGGCCC,0.00931
18,AAACGAGA,-0.00747
19,GTAAAAGA,-0.272
20,CGCGTACA,-0.0236
21,AGCAGCAC,-0.338
22,AAGACCGA,-0.0751
23,CCTGAGAC,0.168
24,TGGGCCAA,-0.236
25,GCCAAAAC,-0.157

row,Sequence,binding signal [E-score]
1,ATGAAGCC,-0.0431
2,TGAAAGAA,-0.198
3,AACGTACC,-0.0776
4,GCCCATGA,-0.055
5,ATCCGCAG,0.312
6,AAGACGGC,-0.0691
7,CAGGACGA,-0.109
8,AGTCTCCC,-0.146
9,CACAACAA,-0.119
10,AAAAGAGT,-0.196
11,GCCCCTAA,-0.12
12,GGAGAGTA,0.0867
13,ATGCACTC,-0.0805
14,CTTGCTGA,-0.0978
15,AATCTGCC,0.0516
16,ACGTAAAC,-0.207
17,GCTTCCAC,-0.297
18,CGGCATAG,0.0273
19,CAAGCGAC,-0.251
20,CGAATCCA,0.165
21,CAGCAGGA,0.0321
22,AGCATGTC,-0.236
23,AAGCTCCT,-0.193
24,GCCACGCC,-0.27
25,AGCACTTA,-0.212

row,Sequence,binding signal [E-score]
1,ATATACCG,0.393
2,AGCCGCCT,0.0811
3,GTGGCTTA,-0.217
4,AGTTCTGC,-0.268
5,AGGCACCT,-0.157
6,ATCCTAGC,0.165
7,AACTACCA,-0.186
8,CAGAAGGC,-0.151
9,ATCCGATG,0.253
10,CACAGGCG,0.0281
11,CCAGGCTA,0.0814
12,CGTGCCGC,-0.141
13,TCGTAACA,-0.102
14,CGGACATC,-0.177
15,CGGCGTAG,-0.107
16,AACCACTT,-0.0743
17,AGCACAGG,-0.101
18,TGCCGGAA,-0.131
19,CTTGGAGC,-0.0107
20,TATCGTCA,0.364
21,CGTCCACC,-0.243
22,TCCATCCA,0.0976
23,GACTGCTC,-0.357
24,ATGGGTCC,-0.0045
25,AGCTTTGC,-0.116

row,Sequence,binding signal [E-score]
1,CTGCTTCA,-0.265
2,AAGAGCGA,-0.159
3,AGCATACA,-0.0273
4,AGGTTTCA,0.08
5,AGTTGGTA,0.155
6,AAGGGTGC,-0.162
7,GTTCGACA,-0.0843
8,CAGGGTGC,-0.117
9,ATACTTTA,0.261
10,CGGCGGTA,0.12
11,CAGTTTCA,-0.183
12,CTGCTCTC,-0.132
13,GCATTGCC,-0.147
14,ACCCAAGT,-0.0168
15,CCATTAAG,-0.0194
16,AGGCCCAT,-0.27
17,CCATTAAA,-0.119
18,GGCGTCTA,-0.0387
19,CGAGTGCC,-0.255
20,ACTGCGGG,0.0231
21,TTCAGGAA,-0.339
22,CCAAGTCA,-0.127
23,AGATATAG,0.187
24,AGCTGAGA,-0.0456
25,ACAACCGC,0.0366

row,Sequence,binding signal [E-score]
1,GAGCGATC,0.279
2,CAATGTGA,-0.103
3,CCTGTTGC,-0.0543
4,AGGGGGAC,0.0297
5,ATTGGGAG,-0.0634
6,CGGGCGTA,0.0313
7,GGTACTAA,0.00186
8,GGGGTCAA,0.151
9,CGGATGGA,0.121
10,AAAATGTG,-0.158
11,CGTGACAC,0.247
12,TGCGGTAA,-0.176
13,GCATACGA,0.157
14,CCGCTACG,-0.171
15,AAAGTACC,-0.176
16,CCACAAAA,0.0855
17,CTACTTCC,-0.0941
18,GGCCGACA,-0.173
19,GATTGGGC,-0.108
20,GGCATGAC,-0.161
21,CTCGCAAA,-0.193
22,GGCAGGCC,-0.196
23,ATGGGCCC,-0.213
24,GATCTATA,0.298
25,ACTAGATG,0.12

row,Sequence,binding signal [E-score]
1,AGGAAGCG,-0.198
2,GACGCCCA,-0.192
3,AGTAATGG,-0.0338
4,CAAGCGAA,-0.2
5,ATAGTCAG,0.037
6,ACTAGTCA,-0.227
7,TATAGACA,0.232
8,ACTACGAA,-0.195
9,CATGCTTA,0.0397
10,CCGGATCC,0.424
11,CCTAGGTA,0.0984
12,TCAATGAA,0.00752
13,AAAGTCCC,-0.133
14,ATAAATCA,0.0906
15,ACCATACA,0.18
16,ACCGGTCC,-0.206
17,ACGATGCC,-0.0824
18,ATACCTAT,0.398
19,AGGTGACA,0.137
20,TGACGACA,-0.0986
21,CCTGCGTA,-0.0253
22,ATCCCCCC,0.423
23,GGCTTCCC,0.0565
24,CACAGTTA,-0.0533
25,ATATTGCG,0.234

row,Sequence,binding signal [E-score]
1,CGTAGTCA,-0.0834
2,CACGGCCG,-0.00311
3,AAAATTCA,-0.283
4,GGCCGTAC,0.0548
5,ACATCACA,0.0126
6,AGGCCAGA,-0.0852
7,ATTGACAC,0.315
8,CGGAGCAC,-0.0464
9,AATTTATG,-0.19
10,ACCATCCA,0.00929
11,ACCGCATC,0.186
12,CAGCTGAG,0.0188
13,AGTAGAGA,-0.000225
14,TGGGCAAA,-0.143
15,CGTTTAGC,0.0552
16,CCACCCAC,0.0493
17,GATAACAC,0.082
18,CTTCGTGA,-0.00241
19,TACCAAAA,0.0673
20,AAGTCTTC,-0.247
21,AGATGACG,0.0859
22,GGCAATAC,0.181
23,TCTGCACA,-0.0704
24,AATGGCCA,-0.281
25,CACTGTTC,-0.31

row,Sequence,binding signal [E-score]
1,CACATCGC,-0.081
2,ATGGGACA,0.0554
3,GCGCCAAC,-0.273
4,AATCCATA,0.214
5,CATTACCC,-0.117
6,ATATTTGG,0.0981
7,ACCCCCGC,0.135
8,CCTACCTC,-0.108
9,GAAGGAGA,0.121
10,ATCGAGAC,0.217
11,GAGGCGCC,-0.127
12,CTAGAAAG,-0.132
13,AGACGCGA,0.0346
14,CGGTTTGC,-0.183
15,TCCGCTAA,0.0211
16,AAACTTGA,-0.0777
17,ACCTCCTC,-0.08
18,CCCGCTAC,0.00854
19,ACAAATGA,-0.204
20,CACCGCGC,0.106
21,GACGTGTA,0.107
22,ATTGAGAG,0.0988
23,AATGCTGC,-0.292
24,AATAACAG,-0.17
25,ATGTCCTG,-0.199

row,Sequence,binding signal [E-score]
1,ATAAACGC,-0.0335
2,GCTTATCC,0.304
3,GCGTATGA,0.081
4,GGAGGCAA,0.045
5,GCATGCCA,-0.0427
6,CAATAAAC,-0.176
7,GTGACTTA,-0.227
8,AATCAGGC,-0.0947
9,CAATGGTC,-0.0567
10,CTCTACGA,0.0161
11,CGTGTCGC,0.128
12,CAGTATCA,0.465
13,ACCGTAAG,-0.0762
14,GGCGATAC,0.444
15,ATGAAGAG,-0.035
16,GGACTTCA,-0.029
17,TGAATGAA,-0.0556
18,CATAGTAG,0.0964
19,ACATCCCT,0.0532
20,GCGCTATA,0.0517
21,GTTGAAAC,-0.0597
22,TGAGTCCA,-0.154
23,AGAGCGCC,-0.233
24,AGCTCTGG,-0.173
25,CGGCCCTC,0.0553

row,Sequence,binding signal [E-score]
1,ATGGGGCC,-0.249
2,AGTTGACA,-0.0934
3,ATACTTGA,0.222
4,AAACGACG,-0.219
5,AAACCCGC,-0.00726
6,ATTGGCAC,0.118
7,TATACTGA,0.239
8,ACGTGAGA,0.0501
9,ATGTTGGC,-0.198
10,ACAACAAG,-0.159
11,TAAAGCGA,0.0724
12,CTCTCAGA,-0.19
13,ATGTGCTA,-0.133
14,CGGAACAG,-0.163
15,AGATAATC,0.143
16,AACATCGT,-0.0978
17,CTAACAGC,-0.122
18,GCTAAATA,0.00109
19,CGGCTACA,-0.023
20,CCAGCTAC,-0.0267
21,CATCTACA,0.12
22,GTTTCACA,-0.101
23,AGGAATAG,-0.0926
24,CGAAACCG,0.0879
25,AAGTAAGT,-0.28

row,Sequence,binding signal [E-score]
1,GTGGACGA,-0.248
2,AACCGGAT,0.316
3,AAGGACTG,-0.244
4,ATCCGGTG,0.405
5,GTGTCCGA,0.217
6,AAGGGGTC,-0.0918
7,ATCCCGAC,0.238
8,CTAGGGGA,0.0877
9,GATGGCTA,0.114
10,GCCCCTCA,-0.108
11,AGAGAACA,-0.0918
12,GTTCGTTA,-0.0719
13,CGCATGCC,-0.126
14,ACGATCGT,0.154
15,ACCCTATC,0.346
16,GACTCATC,-0.162
17,CGTGAGCA,-0.117
18,CATTACGC,-0.144
19,CGTAGGAA,-0.0608
20,ACTGACGA,-0.108
21,GTGGCGTA,0.0738
22,ACTATGGA,-0.0209
23,CAACAGGG,-0.0556
24,GAGCCGGA,0.166
25,GGCGGCAC,-0.143

row,Sequence,binding signal [E-score]
1,TATCTACA,0.167
2,CCGGCGGC,-0.142
3,CATCACCG,0.000455
4,GGTTTTTA,-0.122
5,CATGGGGA,0.0843
6,GACTAGCC,-0.193
7,GCGCAGCA,-0.317
8,CGCTTAAG,-0.00293
9,ACAAGCGT,-0.00636
10,TCGCGCAA,-0.0849
11,AGCCTATC,0.192
12,CTATAACC,0.0761
13,CCAGCACA,-0.123
14,GAATGGGA,-0.0835
15,ACAGATTA,0.0542
16,AATACAAC,0.0249
17,CCTGCGGC,0.078
18,CAAAACCA,0.0298
19,ACAGATGC,-0.184
20,GATAACAA,0.0842
21,ATGTAACG,0.0966
22,GAGTTATC,0.248
23,ATTTAAAC,0.0992
24,CGCAAAGA,-0.18
25,AGAGGGCG,-0.123

row,Sequence,binding signal [E-score]
1,CGGTGGTA,0.11
2,ACAGCTCT,-0.231
3,ATAAAAGA,0.0264
4,ATAACCAA,-0.214
5,CAATGGAC,-0.259
6,GGGTTTAA,0.0886
7,CTCTTCGC,-0.142
8,AAGTTAAC,-0.131
9,AGACGTTA,-0.102
10,CGTAACAG,-0.146
11,GGTAAGCA,-0.155
12,ACTCGAGT,-0.191
13,AGAATCCT,-0.142
14,GCCACGAA,-0.268
15,CAAGACAG,-0.109
16,CGGTTGAA,0.046
17,AAACAGGA,-0.0702
18,CCTCTGGC,-0.158
19,AAAGAGAG,-0.324
20,CTTCTATA,0.0648
21,TAACGAAA,-0.095
22,GGCCTGTA,-0.163
23,CTTACCCA,-0.0884
24,TCTTATCA,-0.0217
25,TGCGCAAA,-0.233

row,Sequence,binding signal [E-score]
1,AGGTTACT,0.111
2,AAGCACGG,-0.146
3,CAGACATA,0.0948
4,GGCGAGCC,-0.0846
5,ATAAACAT,-0.0904
6,AGTCAATA,0.111
7,GTGCCCCA,-0.0235
8,GGCTTGAA,-0.113
9,ACCTAATC,0.0389
10,ATACATTG,0.218
11,ATGTGTTC,-0.222
12,ACTTTAGA,-0.0391
13,ATAGAATG,0.0796
14,AGAGCAGC,-0.255
15,CCGTGTCC,-0.0358
16,ACCAAAAA,-0.0603
17,CAGGAGAC,-0.069
18,CCAGCCGG,-0.0219
19,AGGCATTG,-0.254
